{"source": "PubChem BioAssay AID894", "about": "(National Center for Advancing Translational Sciences (NCATS), 2007)", "note": "“And” between values parts separate entries of the source, which are not always exact repeats. Equal values may be shown once. Out of some 150,000 compounds screened, about 6,500 (4.3%) were called active. This list was built around the results that the source calls inconclusive (neither active nor inactive); the mix of calls is not that of the screen. Calls come from the whole dose curve; as a rule, active = well fitted inhibition curve with a large enough effect (not every such curve was filed as active); inconclusive = small, poorly fitted or top-dose-only effect, or another doubt; inactive = no such curve, though single readings can be large or run the other way. Where the call is inconclusive, the potency comes from a doubtful curve fit. % is set by controls: 0 for no effect and ±100 for the full control effect; potency is the fitted concentration of half-maximal effect; tags give direction and shape of the fitted curve.", "data": [{"target": "15-hydroxyprostaglandin dehydrogenase [NAD(+)] (Homo sapiens) (UniProt P15428)", "sequence (P15428 whole entry, looked up)": "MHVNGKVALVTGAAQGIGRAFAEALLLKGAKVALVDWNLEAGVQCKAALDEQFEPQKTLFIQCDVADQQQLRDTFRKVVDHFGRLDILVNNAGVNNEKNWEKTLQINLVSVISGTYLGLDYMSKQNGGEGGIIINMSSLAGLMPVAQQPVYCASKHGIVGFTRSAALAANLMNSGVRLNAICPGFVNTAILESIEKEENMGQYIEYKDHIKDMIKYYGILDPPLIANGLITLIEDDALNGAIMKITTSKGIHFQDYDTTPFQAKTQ", "experiment": "qHTS Assay for Inhibitors of HPGD (15-Hydroxyprostaglandin Dehydrogenase)", "conditions": "purified HPGD, NADH fluorescence kinetic, PGE2 substrate; activity change, negative = inhibition: stronger effect = lower value", "procedure,_shortened": "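NADH formation kinetics: reaction with 30 uM PGE2 and 1 mM NAD+ (final), 20 nM enzyme, Tris-HCl pH 8 with Tween 20, after 15 min compound preincubation at room temperature. Fluorescence change, last versus first of five reads.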", "values": [{"smiles": "OC1CC2CC[C@H](C1)N2CCCN1c2ccccc2Sc2ccc(Cl)cc21", "note": "(some centres undefined)", "activity change, negative = inhibition": "inactive: -6.82%"}, {"smiles": "CC(C)(C)C1CCc2c(sc(NC(=O)c3cccs3)c2C(N)=O)C1", "note": "(centres undefined)", "Potency": "inconclusive: 28.2 µM [inhibitor, partial curve]"}, {"smiles": "Oc1cccc(/C=N/NC(=S)Nc2cccnc2)c1O", "Potency": "active: 31.6 µM"}, {"smiles": "COc1cc(C2C(C#N)=C(N)Oc3cc(C)n(CC4CCCO4)c(=O)c32)cc2c1OCO2", "note": "(centres undefined)", "activity change, negative = inhibition": "inactive: -18.5%"}, {"smiles": "CC(C)[C@@H](CC(=O)N[C@@H]1CCCC[C@H]1C(=O)N[C@H](CC(=O)N[C@@H](CCC(=O)O)CC(=O)O)Cc1ccccc1)NC(=O)C[C@H](Cc1c[nH]c2ccccc12)NC(=O)[C@@H]1CCCC[C@H]1N", "activity change, negative = inhibition": "inactive: -0.697%"}, {"smiles": "COc1cccc(CN(C(=O)Cc2c[nH]c3ccccc23)C(C(=O)NC2CCCCC2)c2ccc(C)o2)c1", "note": "(centres undefined)", "activity change, negative = inhibition": "inactive: -18.8%"}, {"smiles": "CC1CC(C)CN(Cc2nc3c(c(=O)n(C)c(=O)n3C)n2CCN2CCOCC2)C1", "note": "(centres undefined)", "activity change, negative = inhibition": "inactive: -0.503%"}, {"smiles": "CC(C)(C)C(=O)Nc1sc2c(c1-c1nc3ccccc3[nH]1)CCCC2", "Potency": "inconclusive: 14.1 µM [inhibitor, partial curve]"}, {"smiles": "Cc1ccc(OCC(=O)NNC(=O)C(C)Sc2ncnc3sc(C)c(C)c23)cc1", "note": "(centres undefined)", "Potency": "active: 31.6 µM"}, {"smiles": "CCOC(=O)c1c(-c2ccc(C)cc2)csc1NC1=NS(=O)(=O)c2ccccc21", "Potency": "inconclusive: 25.1 µM [inhibitor, partial curve]"}, {"smiles": "Cc1cc(C)n2ncc(C(=O)NCc3ccccc3)c2n1", "Potency": "inconclusive: 35.5 µM [inhibitor, partial curve]"}, {"smiles": "COc1ccc(/C=N/NC(=O)c2ccc(CN3c4cccc5cccc(c45)S3(=O)=O)cc2)cc1", "Potency": "inconclusive: 31.6 µM [inhibitor, partial curve]"}, {"smiles": "O=C1c2ccccc2NC(c2ccc(F)cc2)N1Cc1ccco1", "note": "(centres undefined)", "Potency": "inconclusive: 28.2 µM [inhibitor, partial curve]"}, {"smiles": "COC(=O)c1[nH]c2ccc(C)cc2c1NC(=O)CN1CCN(Cc2ccccc2)CC1", "Potency": "inconclusive: 28.2 µM [inhibitor, partial curve]"}, {"smiles": "O=C(OCC(=O)c1c[nH]c2ccccc12)c1ccc(Br)o1", "activity change, negative = inhibition": "inactive: 1.33%"}, {"smiles": "O=C(NCCN1CCOCC1)c1cnn2c(-c3ccccc3)cc(-c3ccccc3)nc12", "Potency": "inconclusive: 14.1 µM [inhibitor, partial curve]"}, {"smiles": "CC1CCN(c2c(NCC3CCC(C(=O)N4CCc5ccccc5C4)CC3)c(=O)c2=O)CC1", "note": "(centres undefined)", "Potency": "active: 2.51 µM"}, {"smiles": "COc1ccccc1CCNC(=O)CSc1nc(-c2ccco2)cc(C(F)(F)F)n1", "Potency": "inconclusive: 31.6 µM [inhibitor, partial curve]"}, {"smiles": "O=[N+]([O-])c1ccccc1/C=N/n1c(COc2ccccc2)n[nH]c1=S", "Potency": "active: 7.08 µM"}, {"smiles": "CCn1c(SCC(=O)Nc2cccc(C)c2)nc2c(c1=O)SC(C)C2", "note": "(centres undefined)", "activity change, negative = inhibition": "inactive: -21.9%"}, {"smiles": "CCOC(=O)c1c(C)c(C(=O)N2CCCCCC2)c(C)n1CC", "Potency": "active: 12.6 µM"}, {"smiles": "COc1ccc(OC)c(-c2cc(C(=O)NCc3cccs3)no2)c1", "Potency": "inconclusive: 20 µM [inhibitor, partial curve]"}, {"smiles": "COCC(C)n1c(C)cc(C(=O)CSc2nnc(N)s2)c1C", "note": "(centres undefined)", "activity change, negative = inhibition": "inactive: -4.37%"}, {"smiles": "COc1cc(/C=N/NC(=O)CNc2n[nH]c(=O)[nH]c2=O)ccc1O", "Potency": "inconclusive: 31.6 µM [inhibitor, single point]"}, {"smiles": "CC1Cc2cc(/C(O)=C3/C(=O)C(=O)N(CCN4CCOCC4)C3c3cccc(Cl)c3)ccc2O1", "note": "(centres undefined)", "Potency": "active: 28.2 µM"}, {"smiles": "Cn1c(NCc2c(O)ccc3ccccc23)nc2ccccc21", "Potency": "inconclusive: 35.5 µM [inhibitor, partial curve]"}, {"smiles": "COc1ccc(CNC(=S)Nc2cc(OC)ccc2OC)cc1", "activity change, negative = inhibition": "inactive: -11.5%"}, {"smiles": "CCN(C)c1ccc(/C=N\\n2nnnc2N)cc1", "activity change, negative = inhibition": "inactive: -17.4%"}, {"smiles": "c1cc(CSc2nnc(-c3ccc4c(c3)OCO4)o2)ccn1", "activity change, negative = inhibition": "inactive: -3.5%"}, {"smiles": "C=CC(=O)OCCCC", "Potency": "inconclusive: 2.24 µM [inhibitor, single point]"}, {"smiles": "CN(C)C1NC(=O)c2cc(-c3ccccc3)sc2N1", "note": "(centres undefined)", "Potency": "inconclusive: 35.5 µM [inhibitor, partial curve, poor fit]"}, {"smiles": "CN(C)/C=C/C(=O)c1ccc(N2CCN(c3ncc(C(F)(F)F)cc3Cl)CC2)cc1", "Potency": "inconclusive: 7.94 µM [inhibitor, partial curve]"}, {"smiles": "CC(OC(=O)c1ccccc1NCc1ccco1)C(=O)Nc1ncc(Cl)cc1Cl", "note": "(centres undefined)", "Potency": "inconclusive: 31.6 µM [inhibitor, partial curve]"}, {"smiles": "COc1ccc(OC)c(NC(=O)NC2(C(F)(F)F)Oc3ccccc3O2)c1", "activity change, negative = inhibition": "inactive: -5.87%"}, {"smiles": "Cc1ccc(NC(=O)CCSc2nnc3ccccn23)cc1", "Potency": "inconclusive: 31.6 µM [inhibitor, partial curve]"}, {"smiles": "Cc1ccc(-c2nnn(CC(=O)Nc3ccc4nn(-c5ccccc5)nc4c3)n2)o1", "activity change, negative = inhibition": "inactive: -0.341%"}, {"smiles": "Cc1ccc(-n2ncc3c(NCc4cccnc4)ncnc32)c(C)c1", "Potency": "inconclusive: 14.1 µM [inhibitor, partial curve]"}, {"smiles": "COC(=O)c1c(C)nc2c(c(SC)nn2-c2ccccc2)c1N", "Potency": "inconclusive: 35.5 µM [inhibitor, partial curve]"}, {"smiles": "CC(C)CC(OC(=O)c1nsc(Cl)c1Cl)C(=O)NCc1cccs1", "note": "(centres undefined)", "Potency": "active: 5.01 µM"}, {"smiles": "O=S(=O)(Nc1ccc2c(c1)nc1n2CCN(Cc2ccccc2)C1)c1ccccc1", "Potency": "inconclusive: 28.2 µM [inhibitor, partial curve]"}, {"smiles": "CCCCSc1[nH]c(=O)c(C(=O)OCC)cc1C#N", "Potency": "inconclusive: 31.6 µM [inhibitor, partial curve]"}, {"smiles": "S=C(Nc1ccc(Cl)cc1Cl)Nn1cnnc1", "Potency": "active: 7.94 µM"}, {"smiles": "Cn1c(-c2ccc(Cl)cc2)ccc(C#N)c1=O", "Potency": "inconclusive: 31.6 µM [inhibitor, partial curve]"}, {"smiles": "Cc1cc2oc(=O)cc(CSc3nc(N)cc(N)n3)c2cc1C", "Potency": "inconclusive: 39.8 µM [inhibitor, single point]"}, {"smiles": "CC(=O)N1CCC2(CC1)CC(=O)c1cc(OCC(=O)NCc3ccco3)ccc1O2", "Potency": "inconclusive: 31.6 µM [inhibitor, partial curve]"}, {"smiles": "O=C(Nc1ccn(Cc2ccccc2)n1)c1n[nH]c([N+](=O)[O-])c1Cl", "Potency": "active: 28.2 µM"}, {"smiles": "Cc1ccn2cc(-c3ccc(NS(=O)(=O)c4ccccc4)cc3)nc2c1", "Potency": "active: 22.4 µM"}, {"smiles": "c1ccc(C(c2nnnn2C2CCCCC2)N2CCc3ccccc3C2)nc1", "note": "(centres undefined)", "Potency": "inconclusive: 31.6 µM [inhibitor, partial curve]"}, {"smiles": "Cc1ccc(OCCOCCOc2ccc(Br)cc2/C=N\\NC(=O)c2ccncc2)cc1", "Potency": "inconclusive: 28.2 µM [inhibitor, single point]"}, {"smiles": "CCN(CC)S(=O)(=O)c1ccc2c3c(cccc13)C(=O)S2", "Potency": "inconclusive: 35.5 µM [inhibitor, single point]"}, {"smiles": "CCOC(=O)C1=C(c2ccccc2)NC(SCC(=O)Nc2ccccc2C)=C(C#N)C1c1ccco1", "note": "(centres undefined)", "Potency": "inconclusive: 39.8 µM [inhibitor, partial curve]"}, {"smiles": "CSc1nnc(CNC(=O)C23CC4CC(CC(C4)C2)C3)n1Cc1ccccc1", "activity change, negative = inhibition": "inactive: 1.04%"}, {"smiles": "O=C(c1cccnc1)N1CCN(S(=O)(=O)c2ccc(S(=O)(=O)N3CCCC3)cc2)CC1", "activity change, negative = inhibition": "inactive: 3.04%"}, {"smiles": "COC(=O)c1ccc(/C=C/c2ccc3cccc(OC)c3n2)cc1", "Potency": "inconclusive: 7.94 µM [inhibitor, partial curve]"}, {"smiles": "Cc1nc2ccccc2nc1SCC(=O)N1CCC(C)CC1", "activity change, negative = inhibition": "inactive: -10.3%"}, {"smiles": "CC(/C=N/NC(=O)Cc1cccn1C)=C\\c1ccco1", "Potency": "inconclusive: 39.8 µM [inhibitor, single point]"}, {"smiles": "Clc1ccc(/C=C/c2nc3ccccc3[nH]2)cc1", "Potency": "inconclusive: 14.1 µM [inhibitor, partial curve]"}, {"smiles": "CCCCC(=O)N(Cc1ccc(-c2ccccc2-c2nn[nH]n2)cc1)C(C(=O)O)C(C)C", "note": "(centres undefined)", "activity change, negative = inhibition": "inactive: -8.46%"}, {"smiles": "CC(=O)c1c(C)cc(C)c(CSc2nc(C)cc(=O)[nH]2)c1C", "Potency": "inconclusive: 22.4 µM [inhibitor, partial curve]"}, {"smiles": "O=C(NCc1ccco1)c1ccc(COc2cc(Cl)ccc2Cl)cc1", "Potency": "active: 17.8 µM"}, {"smiles": "Cc1ccc(-n2c3c(cc(C(=O)NCCCN4CCOCC4)c2=O)C(=O)CC(C)(C)C3)cc1", "Potency": "inconclusive: 28.2 µM [inhibitor, partial curve]"}, {"smiles": "COc1ccc2c(OC)c3ccoc3nc2c1OC", "Potency": "inconclusive: 14.1 µM [inhibitor, partial curve] and inconclusive: 14.1 µM [inhibitor, full curve]"}, {"smiles": "CC1(C)CC(=O)C2=C(C1)OC(/N=C/N1CCOCC1)=C(C#N)C2c1ccccc1", "note": "(centres undefined)", "activity change, negative = inhibition": "inactive: -24.3%"}, {"smiles": "COC(=O)c1c(N2C(=O)[C@H]3[C@@H](C2=O)[C@]2(C(=O)Nc4c(C)cccc42)N2CCC[C@@H]32)sc(C)c1C", "activity change, negative = inhibition": "inactive: -17%"}, {"smiles": "Cc1ccc(-c2nc3ccccc3s2)cc1NC(=S)NC(=O)c1ccccc1", "activity change, negative = inhibition": "inactive: -12.1%"}, {"smiles": "Cc1ccc(S(=O)(=O)Nc2ccccc2C(=O)c2ccc(C)c(C)c2)cc1", "Potency": "inconclusive: 4.47 µM [inhibitor, partial curve]"}, {"smiles": "O=C(CCc1nc2ccccc2[nH]c1=O)OCc1ccc(S(=O)(=O)N2CCOCC2)cc1", "activity change, negative = inhibition": "inactive: -25.4%"}, {"smiles": "COc1ccc(C2CC(c3cccs3)=NN2C(=O)CSc2nc3ccccc3o2)cc1", "note": "(centres undefined)", "Potency": "inconclusive: 28.2 µM [inhibitor, partial curve]"}, {"smiles": "N#CN=C1CCCCCN1CC(N)=O", "activity change, negative = inhibition": "inactive: -6.46%"}]}]}
